# In the supplement of paper PMC8728848:
# This is one part of the list.
# B1: Eap (Staphylococcus aureus), A0A7L5PYT7 (protein)
# chain: MKFKSLITTTLALGVLASTGANFNNNEAAAAAKPLDKSSSSLHHGYSKVHVPYAITVNGTSQNILSSLTFNKNQNISYKDLEDRVKSVLKSDRGISDIDLRLSKQAKYTVYFKNGTKKVIDLKAGIYTADLINTSEIKAININVDTKKQVEDKKKDKANYQVPYTITVNGTSQNILSNLTFNKNQNISYKDLEDKVKSVLESNRGITDVDLRLSKQAKYTVNFKNGTKKVIDLKSGIYTANLINSSDIKSININVDTKKHIENKAKRNYQVPYSINLNGTSTNILSNLSFSNKPWTNYKNLTSQIKSVLKHDRGISEQDLKYAKKAYYTVYFKNGGKRILQLNSKNYTANLVHAKDVKRIEITVKTGTKAKADRYVPYTIAVNGTSTPILSDLKFTGDPRVGYKDISKKVKSVLKHDRGIGERELKYAKKATYTVHFKNGTKKVININSNISQLNLLYVQDIKKIDIDVKTGTKAKADSYVPYTIAVNGTSTPILSKLKISNKQLISYKYLNDKVKSVLKSERGISDLDLKFAKQAKYTVYFKNGKKQVVNLKSDIFTPNLFSAKDIKKIDIDVKQYTKSKKNK
# Experiments:
# Test in all cases: glycan array binding signal (z-score within array); higher = stronger binding
# Details in all cases: glycan notation: IUPAC condensed, linker removed
# [1] = target: Neu5Ac(a2-3)Gal(b1-4)[Fuc(a1-3)]GlcNAc(b1-3)Gal(b1-4)[Fuc(a1-3)]GlcNAc(b1-3)Gal(b1-4)[Fuc(a1-3)]GlcNAc
# Method in brief: (§1)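 Negative Z-scores can be read as non-binding. The Z-score is calculated within each array and then averaged across arrays of one protein sequence at different concentrations or buffers and across linkers. Arrays, 3228 in all, were curated from the Consortium for Functional Glycomics database and kept only where the protein sequence was available.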
# [2] = target: Neu5Ac(a2-3)Gal(b1-4)[Fuc(a1-3)]GlcNAc(b1-6)[Gal(b1-3)]GalNAc
# Method in brief: as §1
# [3] = target: Neu5Ac(a2-3)Gal(b1-4)[Fuc(a1-3)]GlcNAc(b1-6)[Neu5Ac(a2-3)Gal(b1-3)]GalNAc
# Method in brief: as §1
# [4] = target: Neu5Ac(a2-3)Gal(b1-4)[Fuc(a1-3)]GlcNAc6S
# Method in brief: as §1
# [5] = target: Neu5Ac(a2-3)Gal6S(b1-4)GlcNAc
# Method in brief: as §1
# [6] = target: Neu5Ac(a2-3)Gal6S(b1-4)[Fuc(a1-3)]GlcNAc
# Method in brief: as §1
# [7] = target: Neu5Ac(a2-3)GalNAc
# Method in brief: as §1
# [8] = target: Neu5Ac(a2-3)GalNAc(b1-4)GlcNAc
# Method in brief: as §1
# [9] = target: Neu5Ac(a2-3)[GalNAc(b1-4)]Gal(b1-4)Glc
# Method in brief: as §1
# [10] = target: Neu5Ac(a2-3)[GalNAc(b1-4)]Gal(b1-4)GlcNAc
# Method in brief: as §1
# [11] = target: Neu5Ac(a2-3)[Neu5Ac(a2-6)]GalNAc
# Method in brief: as §1
# [12] = target: Neu5Ac(a2-6)Gal
# Method in brief: as §1
# [13] = target: Neu5Ac(a2-6)Gal(b1-4)Glc
# Method in brief: as §1
# [14] = target: Neu5Ac(a2-6)Gal(b1-4)GlcNAc
# Method in brief: as §1
# [15] = target: Neu5Ac(a2-6)Gal(b1-4)GlcNAc(b1-2)Man(a1-3)Man(b1-4)GlcNAc(b1-4)GlcNAc
# Method in brief: as §1
# [16] = target: Neu5Ac(a2-6)Gal(b1-4)GlcNAc(b1-2)Man(a1-3)[Gal(b1-4)GlcNAc(b1-2)Man(a1-6)]Man(b1-4)GlcNAc(b1-4)GlcNAc
# Method in brief: as §1
# [17] = target: Neu5Ac(a2-6)Gal(b1-4)GlcNAc(b1-2)Man(a1-3)[GlcNAc(b1-2)Man(a1-6)]Man(b1-4)GlcNAc(b1-4)GlcNAc
# Method in brief: as §1
# [18] = target: Neu5Ac(a2-6)Gal(b1-4)GlcNAc(b1-2)Man(a1-3)[GlcNAc(b1-2)Man(b1-4)GlcNAc(b1-2)Man(a1-6)]Man(b1-4)GlcNAc(b1-4)GlcNAc
# Method in brief: as §1
# [19] = target: Neu5Ac(a2-6)Gal(b1-4)GlcNAc(b1-2)Man(a1-3)[Man(a1-6)]Man(b1-4)GlcNAc(b1-4)GlcNAc
# Method in brief: as §1
# [20] = target: Neu5Ac(a2-6)Gal(b1-4)GlcNAc(b1-2)Man(a1-3)[Neu5Ac(a2-6)Gal(b1-4)GlcNAc(b1-2)Man(a1-6)]Man(b1-4)GlcNAc(b1-4)GlcNAc
# Method in brief: as §1
# [21] = target: Neu5Ac(a2-6)Gal(b1-4)GlcNAc(b1-2)Man(a1-6)Man(b1-4)GlcNAc(b1-4)GlcNAc
# Method in brief: as §1
# [22] = target: Neu5Ac(a2-6)Gal(b1-4)GlcNAc(b1-2)Man(a1-6)[Gal(b1-4)GlcNAc(b1-2)Man(a1-3)]Man(b1-4)GlcNAc(b1-4)GlcNAc
# Method in brief: as §1
# [23] = target: Neu5Ac(a2-6)Gal(b1-4)GlcNAc(b1-2)Man(a1-6)[GlcNAc(b1-2)Man(a1-3)]Man(b1-4)GlcNAc(b1-4)GlcNAc
# Method in brief: as §1
# [24] = target: Neu5Ac(a2-6)Gal(b1-4)GlcNAc(b1-2)Man(a1-6)[Man(a1-3)]Man(b1-4)GlcNAc(b1-4)GlcNAc
# Method in brief: as §1
# [25] = target: Neu5Ac(a2-6)Gal(b1-4)GlcNAc(b1-3)Gal(b1-3)GlcNAc
# Method in brief: as §1
# [26] = target: Neu5Ac(a2-6)Gal(b1-4)GlcNAc(b1-3)Gal(b1-4)GlcNAc
# Method in brief: as §1
# [27] = target: Neu5Ac(a2-6)Gal(b1-4)GlcNAc(b1-3)Gal(b1-4)GlcNAc(b1-3)Gal(b1-4)GlcNAc
# Method in brief: as §1
# [28] = target: Neu5Ac(a2-6)Gal(b1-4)GlcNAc(b1-3)Gal(b1-4)[Fuc(a1-3)]GlcNAc(b1-3)Gal(b1-4)[Fuc(a1-3)]GlcNAc
# Method in brief: as §1
# [29] = target: Neu5Ac(a2-6)Gal(b1-4)GlcNAc(b1-3)GalNAc
# Method in brief: as §1
# [30] = target: Neu5Ac(a2-6)Gal(b1-4)GlcNAc6S
# Method in brief: as §1
binder,measurement,setting,value
B1,glycan array binding signal (z-score),[1],-0.728
same,glycan array binding signal (z-score),[2],-0.08
same,glycan array binding signal (z-score),[3],-0.297
same,glycan array binding signal (z-score),[4],-0.653
same,glycan array binding signal (z-score),[5],1.12
same,glycan array binding signal (z-score),[6],-0.35
same,glycan array binding signal (z-score),[7],-0.425
same,glycan array binding signal (z-score),[8],-0.589
same,glycan array binding signal (z-score),[9],-0.502
same,glycan array binding signal (z-score),[10],-0.33
same,glycan array binding signal (z-score),[11],-0.406
same,glycan array binding signal (z-score),[12],-0.41
same,glycan array binding signal (z-score),[13],0.222
same,glycan array binding signal (z-score),[14],-0.351
same,glycan array binding signal (z-score),[15],-0.609
same,glycan array binding signal (z-score),[16],-0.48
same,glycan array binding signal (z-score),[17],-0.646
same,glycan array binding signal (z-score),[18],-0.57
same,glycan array binding signal (z-score),[19],-0.525
same,glycan array binding signal (z-score),[20],-0.095
same,glycan array binding signal (z-score),[21],-0.648
same,glycan array binding signal (z-score),[22],-0.362
same,glycan array binding signal (z-score),[23],-0.63
same,glycan array binding signal (z-score),[24],-0.496
same,glycan array binding signal (z-score),[25],-0.168
same,glycan array binding signal (z-score),[26],-0.493
same,glycan array binding signal (z-score),[27],-0.513
same,glycan array binding signal (z-score),[28],-0.323
same,glycan array binding signal (z-score),[29],0.453
same,glycan array binding signal (z-score),[30],-0.392
